# Data taken from PubChem BioAssay AID1460 (National Center for Advancing Translational Sciences (NCATS), 2008).
# Screen size: about 270,000 compounds; about 5,800 (2.1%) were called active. The shares of active, inactive and inconclusive entries below differ from those in the screen. The call rests on the fitted dose curve; in most records, active means well fitted inhibition curve with a large enough effect; inconclusive means small, poorly fitted or top-dose-only effect; inactive means flat fitted curve, though single readings scatter. A potency beside an inconclusive call is a rough fit, not a confirmed value.
# Biological target: Microtubule-associated protein tau (Homo sapiens) (UniProt P10636)
# Assay: qHTS for Inhibitors of Tau Fibril Formation, Thioflavin T Binding; further: nearly all actives have a fitted effect of over 55% in size
# Conditions: recombinant tau K18 P301L (four-repeat tau fragment), heparin-induced fibrillization, ThT fluorescence; series mostly up to 57.4 µM
# Method in brief: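 Heparin-induced fibrillization of the P301L-mutant K18 repeat-domain fragment of human tau was followed by ThT binding in quantitative high-throughput format.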
# On the % scale 0 is the no-effect control and ±100 the full control effect; potency means the concentration at half of the fitted maximal effect; tags describe the fitted curve by direction and shape.
# Chain of UniProt P10636 (P10636 whole entry, looked up): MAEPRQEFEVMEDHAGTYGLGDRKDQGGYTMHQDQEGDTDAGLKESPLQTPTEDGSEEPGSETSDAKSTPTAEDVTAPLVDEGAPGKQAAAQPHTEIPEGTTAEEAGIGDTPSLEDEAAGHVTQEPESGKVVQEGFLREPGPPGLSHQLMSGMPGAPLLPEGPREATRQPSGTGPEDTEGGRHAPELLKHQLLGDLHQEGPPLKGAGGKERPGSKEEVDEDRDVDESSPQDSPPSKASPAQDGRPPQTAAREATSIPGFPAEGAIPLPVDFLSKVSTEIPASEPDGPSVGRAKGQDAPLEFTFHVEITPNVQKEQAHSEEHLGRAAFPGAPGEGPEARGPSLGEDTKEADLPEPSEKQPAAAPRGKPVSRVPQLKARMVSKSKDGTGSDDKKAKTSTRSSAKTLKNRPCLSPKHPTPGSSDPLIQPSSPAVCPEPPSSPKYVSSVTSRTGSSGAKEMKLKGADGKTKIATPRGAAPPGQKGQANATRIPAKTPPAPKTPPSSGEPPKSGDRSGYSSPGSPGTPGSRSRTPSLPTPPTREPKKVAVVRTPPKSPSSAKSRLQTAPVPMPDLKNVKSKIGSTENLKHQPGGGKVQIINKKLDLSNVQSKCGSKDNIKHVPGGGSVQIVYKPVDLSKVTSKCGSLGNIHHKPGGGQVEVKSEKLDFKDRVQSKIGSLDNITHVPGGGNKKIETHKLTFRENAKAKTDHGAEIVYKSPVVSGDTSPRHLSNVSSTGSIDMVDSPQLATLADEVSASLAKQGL
SMILES,Potency,"activity, negative = inhibition"
CC(C)NC(=O)c1sc2nc3c(c(-c4cccs4)c2c1N)CN(C)CC3,"inconclusive: 28.2 µM [inhibitor, partial curve]",–
CCOc1ccc(NC(=O)c2c(NCc3ccc(C)o3)sc3c2CCCCC3)cc1,active: 22.4 µM,–
CC(C(=O)N1CCN(c2ccc([N+](=O)[O-])cc2)CC1)N1C(=O)C2CC=CCC2C1=O (stereo not drawn),"inconclusive: 31.6 µM [inhibitor, single point]",–
O=C(c1ccc(Cl)cc1)N1CCC(c2nc3ccccc3o2)CC1,inactive,–
CC1=C(c2ccc(C)cc2)[N+](=O)C(C)(C)N1[O-],"inconclusive: 11.2 µM [inhibitor, partial curve]",–
CCOc1ccc(NC(=O)CSc2nnc(C3CC3)n2N)cc1,"inconclusive: 5.62 µM [inhibitor, partial curve]",–
O=C(CSc1nnc(-c2cccnc2)n1-c1ccccc1)N1CCN(c2ccc(F)cc2)CC1,"inconclusive: 31.6 µM [inhibitor, partial curve]",–
COc1ccc(C#CC2C=CC(Oc3cc(C)cc(C)c3)C(CO)O2)cc1 (stereo not drawn),–,inactive: -6.15% [at 11.5 µM]
O=C(NNc1nc2cc3c(cc2s1)OCCO3)c1ccc(F)cc1,"inconclusive: 10 µM [inhibitor, partial curve]",–
COc1ccc(NC(=O)CSc2nc(O)cc(=O)[nH]2)c(OC)c1,"inconclusive: 17.8 µM [inhibitor, single point]",–
O=C(O)c1cccc(S(=O)(=O)Nc2ccc3[nH]c(=O)[nH]c3c2)c1,"inconclusive: 17.8 µM [inhibitor, partial curve]",–
O=C(OCc1cc(=O)n2nc(-c3cccs3)sc2n1)c1ccccc1,"inconclusive: 0.891 µM [inhibitor, full curve, poor fit]",–
O=C1C2CCCCN2C(=O)N1CCCCN1CCN(c2ccc([N+](=O)[O-])cc2)CC1 (stereo not drawn),"inconclusive: 11.2 µM [inhibitor, partial curve]",–
CCn1c(COc2cccc(C)c2)nnc1SCC(=O)Nc1cccc(C(=O)OC)c1,"inconclusive: 10 µM [inhibitor, partial curve]",–
Cc1cccc(C)c1NC(=O)Cn1nnc(C(=O)Nc2c(C)cccc2C)c1N,inactive,–
CCCCc1nn2c(=O)cc(COC(=O)c3cccc(Cl)c3)nc2s1,"inconclusive: 7.08 µM [inhibitor, full curve, poor fit]",–
Cc1ccc2nc(-c3ccc(NC(=O)CCN4C(=O)c5ccccc5C4=O)cc3)sc2c1,inactive,–
O=C(CCC1N=C2c3ccccc3N=C(SCc3cccc(F)c3)N2C1=O)NCCc1ccccc1 (stereo not drawn),"inconclusive: 17.8 µM [inhibitor, partial curve, poor fit]",–
